Experimental data as given in article PMC6919601, “Identification of Plasmodium dipeptidyl aminopeptidase allosteric inhibitors by high throughput screening” (PLoS ONE, 2019).
Among all 110,000 compounds or so, about 230 (0.21%) showed an effect of 50% or more. The list shows a part of the results.

The molecules below were run against DPAP1 (Plasmodium falciparum, UniProt Q8IIJ9) (assay: primary screen, percent inhibition; read by cleavage of a fluorogenic dipeptide substrate; higher = more effect of the substance).
DPAP1, sequence (Q8IIJ9 whole entry, looked up): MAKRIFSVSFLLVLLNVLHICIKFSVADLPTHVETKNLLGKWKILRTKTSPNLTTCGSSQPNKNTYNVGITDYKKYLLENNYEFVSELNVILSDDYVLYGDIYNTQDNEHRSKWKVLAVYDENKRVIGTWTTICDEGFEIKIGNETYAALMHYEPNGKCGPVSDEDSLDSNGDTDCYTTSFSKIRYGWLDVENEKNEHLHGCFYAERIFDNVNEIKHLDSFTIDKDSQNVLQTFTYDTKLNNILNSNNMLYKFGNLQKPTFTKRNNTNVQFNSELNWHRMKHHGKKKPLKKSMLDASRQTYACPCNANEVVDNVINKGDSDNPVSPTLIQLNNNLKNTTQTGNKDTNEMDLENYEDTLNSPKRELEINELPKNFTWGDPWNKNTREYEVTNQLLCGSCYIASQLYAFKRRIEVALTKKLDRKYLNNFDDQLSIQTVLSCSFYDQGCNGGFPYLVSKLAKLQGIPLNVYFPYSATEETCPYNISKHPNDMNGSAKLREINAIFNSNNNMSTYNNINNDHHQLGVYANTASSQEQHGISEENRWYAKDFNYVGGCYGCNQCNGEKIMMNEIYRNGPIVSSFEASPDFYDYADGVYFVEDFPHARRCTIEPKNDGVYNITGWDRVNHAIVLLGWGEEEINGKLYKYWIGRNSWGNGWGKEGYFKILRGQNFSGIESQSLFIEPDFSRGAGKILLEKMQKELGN
Parameters: species or system P. falciparum D10 trophozoite lysates; single well
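Further: 30 min substrate incubation versus DMSO and 10 µM JCP410 controls.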

Going from `COc1ccc(N2C(=O)c3ccccc3C2=O)c([N+](=O)[O-])c1` to `O=C1c2cccnc2C(=O)N1c1ccccc1-c1ccccc1`, the “% Inhibition @ 10 uM” value falls from 0.00178% to -2.29%.

Going from `O=C1O[C@@H]2C[C@H]3C[C@@H]2[C@@H]1[C@H]3C(=O)N1CCN(C(=O)c2ccco2)CC1` to `CN1C(C(=O)N2CCN(C(=O)c3ccco3)CC2)=CC(c2ccco2)=NS1(=O)=O`, the “% Inhibition @ 10 uM” value falls from 3.81% to 0.655%.

Compared with `O=S(=O)(NCCc1csc(-c2cccnc2)n1)c1ccc(Oc2ccccc2)cc1`, `COc1ccccc1C(=O)Nc1cccc(-c2nc3ccccc3o2)c1` is lower in “% Inhibition @ 10 uM” value: -0.72% for the first, -8.11% for the second.

Going from `CCc1ccc(OCCN2CCOCC2)cc1` to `S=C(Cc1ccc(CC(=S)N2CCOCC2)cc1)N1CCOCC1`, the “% Inhibition @ 10 uM” value rises from -1.96% to 6.31%.

Going from `CC(=O)N1c2ccccc2C(c2ccccc2)(c2ccccc2)OC1C` (centres unmarked) to `Cc1cccc(Cn2c(CCNC(=O)c3ccco3)nc3ccccc32)c1`, the “% Inhibition @ 10 uM” value falls from 2.36% to 0.366%.

Compared with `COc1cc(OC)c(CN2CCCCCCC2)cc1Br`, `O=[N+]([O-])c1cc2c(cc1CN1CCC(N3CCCCC3)CC1)OCO2` is lower in “% Inhibition @ 10 uM” value: 3.1% for the first, -7.18% for the second.

Compared with `Cc1ccccc1OCC(=O)Nc1c(C)n[nH]c1C`, `CCOC(=O)c1cnc2c(C#N)c(C)nn2c1-c1ccccc1` is lower in “% Inhibition @ 10 uM” value: -1.88% for the first, -2.14% for the second.

Going from `CCCN(CCC)C(=O)C(Cc1ccccc1)N1C(=O)C2C3C=CC(C3)C2C1=O` (centres unmarked) to `COc1ccc2c(c1)c(C(=O)N1CCCC1)c(C)n2Cc1ccccc1`, the “% Inhibition @ 10 uM” value falls from 1.12% to -6.86%.

First: CCOc1ccc(CCNC(=O)c2cnc(SC)nc2CC)cc1
Second: CCc1ccc(CNC(=O)c2ccc(CS(=O)(=O)Cc3ccc(C)cc3)o2)cc1
The “% Inhibition @ 10 uM” value of the first is higher: 12.7% for the first, 6.86% for the second.

Going from `CC(C)NC(=O)c1cc2n(n1)C(C(F)(F)F)CC(c1ccc(Br)cc1)N2` (centres unmarked) to `CCOC(=O)C1=C(C)N=c2s/c(=C\c3ccc(C)o3)c(=O)n2C1c1ccc2c(c1)OCO2` (centres unmarked), the “% Inhibition @ 10 uM” value rises from -4.69% to 9.09%.

Compared with `CS(=O)(=O)N(CC(=O)NCc1ccccc1Cl)c1cc(C(F)(F)F)ccc1Cl`, `O=C(CCc1ccccc1)NC1(C(F)(F)F)C(=O)Nc2c1c(=O)[nH]c(=O)n2Cc1ccccc1` (centres unmarked) is lower in “% Inhibition @ 10 uM” value: 4.59% for the first, 2.38% for the second.

Going from `CC1=NN(c2ccccc2)C(=O)/C1=C1/C(=O)Nc2ccc(Cl)cc21` to `Cc1cccc2c1-c1sc(C(=O)N3CCc4ccccc4C3)cc1CO2`, the “% Inhibition @ 10 uM” value falls from 2.33% to -3.08%.

Going from `Cc1ccc(-c2cn3nc(N4CCC(C(=O)N5CCN(c6ncccn6)CC5)CC4)sc3n2)cc1` to `CC(=O)Cc1cccc2cccc(C(=O)O)c12`, the “% Inhibition @ 10 uM” value falls from 1.46% to 1.43%.
